# Measurements published in the supplement of paper PMC3334620.
# In all, about 33,000 sequences were measured (“E-score (-0.5 to 0.5)”: median about -0.021, highest 2% from about 0.32 on). The list shows a part of the results.
# Molecular target: T1, Zap1 (UniProt P47043)
# T1 sequence: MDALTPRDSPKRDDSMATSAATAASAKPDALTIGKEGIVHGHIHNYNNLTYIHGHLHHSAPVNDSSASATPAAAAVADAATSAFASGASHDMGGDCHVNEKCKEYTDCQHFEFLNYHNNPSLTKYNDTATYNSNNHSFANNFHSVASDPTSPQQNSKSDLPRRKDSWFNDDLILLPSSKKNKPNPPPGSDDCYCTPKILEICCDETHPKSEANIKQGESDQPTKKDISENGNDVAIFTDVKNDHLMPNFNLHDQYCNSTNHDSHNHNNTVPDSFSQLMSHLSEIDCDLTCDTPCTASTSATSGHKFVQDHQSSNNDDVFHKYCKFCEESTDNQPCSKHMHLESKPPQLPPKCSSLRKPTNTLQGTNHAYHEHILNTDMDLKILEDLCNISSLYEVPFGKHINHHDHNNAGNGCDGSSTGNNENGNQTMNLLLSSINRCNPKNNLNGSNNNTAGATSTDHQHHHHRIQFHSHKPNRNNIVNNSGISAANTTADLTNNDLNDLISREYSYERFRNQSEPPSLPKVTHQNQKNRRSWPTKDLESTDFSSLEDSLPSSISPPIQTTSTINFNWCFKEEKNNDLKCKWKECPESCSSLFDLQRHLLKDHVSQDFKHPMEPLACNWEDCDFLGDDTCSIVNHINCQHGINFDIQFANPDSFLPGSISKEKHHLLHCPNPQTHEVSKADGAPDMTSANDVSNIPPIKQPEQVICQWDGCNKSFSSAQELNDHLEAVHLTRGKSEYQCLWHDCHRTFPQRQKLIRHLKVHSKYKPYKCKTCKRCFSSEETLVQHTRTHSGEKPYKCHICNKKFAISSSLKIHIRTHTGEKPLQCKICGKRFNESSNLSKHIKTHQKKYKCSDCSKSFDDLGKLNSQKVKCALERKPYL
# Experiment: PBM E-score (8-mer binding enrichment) (E-score (-0.5 to 0.5)); higher = stronger / more preferred TF binding; most listed sequences are background and not binding sites
# Details: protein concentration: 200 nM; construct: GST-full length
# Summary of the method: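 Masliner-normalised scans of fluorescent anti-GST signal were the basis for scoring. That signal came from GST-tagged yeast transcription factors applied at about 100-200 nM to double-stranded universal all-10-mer Agilent arrays on fresh or once-stripped slides. Each ungapped eight-base word, pooled with its reverse complement, received an E-score from the Universal PBM Analysis Suite.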
row,Sequence,PBM E-score
1,CGCGTGAC,0.0439
2,GTGGTACA,0.146
3,ACCGCTTG,0.205
4,CAACGGGA,-0.132
5,AAGGCAAA,0.0479
6,ACGTTCTA,0.0965
7,AGATTTCC,0.0606
8,CGACATCC,-0.0664
9,GCCGACTA,-0.0789
10,CTGGTCTA,-0.187
11,AGTAGAAT,-0.00836
12,AGTAGCGA,-0.0593
13,AGTCCGGA,0.0462
14,CCAATAAA,0.173
15,GACCTGTA,0.0243
16,CTGGTTGA,-0.165
17,GGAAGCTA,-0.14
18,CGGTATGC,-0.233
19,CAGTATGA,0.0911
20,ACGGCATG,-0.155
21,AGACACAG,0.011
22,CACCACGA,0.142
23,AAAATAAT,0.201
24,AAAAGAAC,0.1
25,CTCGATAA,0.0638

row,Sequence,PBM E-score
1,CCCCGTCG,-0.123
2,AGACACAT,-0.0603
3,GCACAGAC,-0.0948
4,CGAAGGTA,0.236
5,GTAGCTGA,-0.14
6,ACATTTGG,-0.158
7,ATAAAGGA,-0.0605
8,ACCGTTCA,0.02
9,ATGGGTGG,-0.0593
10,ACGCAGAC,-0.169
11,ATGTGACG,-0.0996
12,GTGCAAGA,0.0237
13,ACTCACAT,-0.0862
14,ATTATTCC,0.128
15,GCCCGCCC,-0.176
16,GTTAACCA,0.338
17,CACAGTAA,0.203
18,GAAAGTGC,-0.178
19,CTTTAAGA,0.255
20,GAGCGACA,-0.0711
21,GCTGAGCA,-0.146
22,CGGAAGAG,-0.0687
23,GGATATGA,0.0866
24,ACAAACTC,-0.0432
25,AAAAATAC,0.0953

row,Sequence,PBM E-score
1,ACCTACGG,-0.167
2,CTCTCGAA,0.0806
3,GTGAACTA,0.0669
4,AAGTCGGA,-0.022
5,AATCAGAT,-0.0999
6,GAAGGAAC,-0.0592
7,TGCCGCCA,-0.0646
8,AGCTCGAG,-0.0098
9,CGTATACG,0.00634
10,AACTAGAC,0.0394
11,GAATTTCC,0.0639
12,ATCAGGCC,-0.163
13,GTCATATA,0.103
14,GAGCGCAC,-0.28
15,CAGAGGCG,-0.171
16,CAGTCTTC,-0.293
17,AAGTGAAT,0.13
18,TAGTTACA,0.158
19,CTCGCCAG,-0.0146
20,CACCCGGC,-0.282
21,GTCCGGAC,0.0507
22,ACCAATCG,0.0293
23,ACTCGCTG,-0.0868
24,GTTCCAAC,0.106
25,ACCTCAGG,0.12

row,Sequence,PBM E-score
1,AGAATGAC,-0.0217
2,CACTCGAA,-0.057
3,CTCTACCA,-0.00346
4,AGAGGGAT,-0.136
5,AGTAGTGA,-0.0185
6,GGCTATCA,-0.0212
7,AGGGAGGG,-0.0587
8,GCGGACAA,0.0496
9,AAGAGTTG,-0.0115
10,AGTATGCA,-0.0396
11,CTACGAGA,-0.0215
12,ATGCTTGG,-0.157
13,CATGCGCG,-0.0649
14,ATCGATCC,-0.193
15,AAGAAGTC,-0.0784
16,AGAAGAGA,-0.205
17,ATTTTTCA,0.0605
18,CCTCCCCG,0.0923
19,AGGAATTA,-0.0385
20,CGATCAAA,-0.0713
21,TAACCGCA,0.426
22,GGGTTAAA,0.443
23,GGTCCGAC,-0.053
24,AATGGAGC,-0.168
25,CAGTTTCG,-0.0054

row,Sequence,PBM E-score
1,CTTCTGTA,0.117
2,GCGACCGA,0.0401
3,AACTTCCC,-0.188
4,CGAGAAAG,-0.102
5,AAGTTTGC,-0.00289
6,CGAGCAGA,-0.189
7,AACGCACA,0.0441
8,GCCGCGGC,0.216
9,ATCATGGA,-0.265
10,ATTTCCTC,0.0612
11,CATAGCGG,-0.155
12,CGCTCTGC,-0.213
13,AACTCGTA,0.0754
14,CAGATTCG,0.0678
15,CCAGACCC,-0.0238
16,ACCAGATG,0.0966
17,CCGAGGGA,-0.206
18,GGTGACAC,0.0434
19,AGGCGCCA,-0.202
20,CGGGCCCC,0.0471
21,GGGACTCA,-0.183
22,TCGCACGA,-0.152
23,CCTGCTCC,-0.129
24,AATCATGA,0.23
25,AATAAAAG,0.0506

row,Sequence,PBM E-score
1,CCAAGTCA,-0.124
2,TCAAGACA,-0.154
3,AGTTTGGC,-0.00783
4,AAAAACTT,0.0552
5,CAGCGGGC,-0.212
6,CAAACAGG,0.11
7,CAGCTCCA,-0.123
8,AATACAAG,0.204
9,CCGCCCCC,-0.343
10,CTCGAAAC,0.0951
11,GCTTCATA,-0.00903
12,AAGCAAAA,0.181
13,CACACGGG,-0.0693
14,CTGTGGGA,-0.163
15,CTAATTTC,0.0406
16,TAGAGAAA,0.0849
17,GCGATAGC,-0.138
18,CAAATACA,0.0399
19,AGCTCACC,-0.174
20,ACAACCAT,0.322
21,AGTCCGAG,-0.0989
22,AGCACTGG,-0.0411
23,GATCCAAA,0.0695
24,CCACTGAG,-0.00988
25,TACTACTA,0.267

row,Sequence,PBM E-score
1,ACCGCATC,0.144
2,AGATCACC,0.0422
3,CGCGATTC,-0.109
4,CTCATCTA,0.102
5,ACACTCGT,-0.0522
6,AACATTAA,0.143
7,TACCGGGA,0.0137
8,AGTACAGA,0.0397
9,CGAATCAG,-0.207
10,ATACCTAG,0.0153
11,AAGAGGAG,-0.199
12,AGTGTGTA,0.0485
13,CACCTTTA,0.118
14,GAGTTATC,0.108
15,GATTCAAA,-0.0314
16,CATCCCAC,-0.0285
17,ACTAATGG,0.202
18,GATAGTGC,-0.209
19,CAGAGCCG,-0.066
20,CGGCGCCA,-0.132
21,CCTGACAC,-0.109
22,ACGCCCCG,0.0434
23,CAAATTCA,-0.169
24,AATGTCCA,0.057
25,GTTTGGGA,0.0131

row,Sequence,PBM E-score
1,AACAAGCT,-0.0792
2,CCACCCGC,0.269
3,ACACCACT,0.217
4,GTAATTGA,0.0961
5,GATTTACC,0.021
6,CTAGCTAC,-0.193
7,ATGGCAAT,-0.109
8,GACCGGGA,-0.0808
9,GAACTTCC,-0.25
10,TGGTATAA,0.231
11,AGATATCA,-0.0283
12,CATAACGC,0.0481
13,CATAGCGC,-0.12
14,AAACGAAA,0.0922
15,AAGCTCAG,-0.127
16,TAAGCTCA,-0.227
17,CCACACGA,-0.06
18,CGTTTGAG,-0.0505
19,AACGCGTT,0.00119
20,GTTCCCCA,0.179
21,TAGGAACA,-0.0136
22,GATGTGAA,-0.0219
23,GATATACC,-0.00451
24,AAACTTCC,-0.0232
25,CTGTGGGC,0.0073

row,Sequence,PBM E-score
1,GGCACCGA,0.0124
2,CCATACCC,0.29
3,CGGAGACA,-0.076
4,AGGAGGGC,-0.249
5,CTGGGAGC,-0.315
6,CCATTCCA,0.022
7,AACGCGTC,-0.155
8,CAACAGAG,0.0227
9,AAAACATC,0.075
10,GCGAAATA,0.15
11,CGCGGTGA,0.144
12,GAAGCAAC,0.106
13,CCCCCGGA,-0.235
14,ACCCTTAT,0.404
15,AAAATTCG,0.0999
16,AATCGCGC,-0.138
17,ATCCGAAC,-0.0761
18,AGCTTTCC,-0.202
19,AGAGCCGA,0.0742
